Assay results: PubChem BioAssay AID504845 (National Center for Advancing Translational Sciences (NCATS), 2011)
Values joined by “and” are separate entries in the source; they are usually repeats but may differ in a detail not shown here. Equal values may be shown once. About 150 (0.038%) of roughly 390,000 compounds were called active. Inconclusive results, whose numbers are uncertain, are shown with a selection of clear calls. Calls come from the whole dose curve; as a rule, active = well fitted inhibition curve with a large enough effect; inconclusive = small, poorly fitted or top-dose-only effect; inactive = no such curve, though single readings can be large or run the other way. A potency beside an inconclusive call is a rough fit, not a confirmed value. Some structures have more than one record in an assay (separate samples or runs), and their calls can disagree.

The compounds below were run against Regulator of G-protein signaling 4 (Homo sapiens) (UniProt P49798) (assay: Inhibitors of Regulator of G Protein Signaling (RGS) 4: qHTS). Conditions: Transcreener GDP fluorescence polarization, RGS4-accelerated GTP hydrolysis; series mostly up to 114 µM.
Summary of the method: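 MLSMR compounds (23 nl, pin-transferred) preincubated 10 min at room temperature with a 500nM (2x) first reagent, then RGS4 at 900nM (2x) plus Transcreener GDP mix added; fluorescence polarization (620/688 nm) read before and after 90 min at 30 °C.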
Note: nearly all actives have a fitted effect of over 75% in size.
Potency is the fitted concentration of half-maximal effect; tags give direction and shape of the fitted curve.

Chain of UniProt P49798 (P49798 whole entry, looked up): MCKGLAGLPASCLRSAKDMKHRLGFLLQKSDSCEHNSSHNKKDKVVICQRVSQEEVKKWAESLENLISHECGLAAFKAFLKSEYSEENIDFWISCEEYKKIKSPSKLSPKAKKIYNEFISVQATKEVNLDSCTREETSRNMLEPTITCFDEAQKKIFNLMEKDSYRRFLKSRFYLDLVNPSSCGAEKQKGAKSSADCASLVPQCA

| Structure (SMILES) | Potency |
| --- | --- |
| CN1C(=O)/C(=C/c2cccn2-c2ccc3ccccc3c2)C(=O)NC1=S | inconclusive: 17.8 µM [inhibitor, full curve, poor fit] |
| NS(=O)(=O)c1ccc(-c2ccc(C=C3C(=O)NC(=O)NC3=O)o2)cc1 | inconclusive: 17.8 µM [inhibitor, full curve, poor fit] |
| O=C1NC(=O)N(Cc2ccco2)C(=O)/C1=C\c1cccn1CCOc1ccc(Cl)cc1 | inconclusive: 79.4 µM [inhibitor, partial curve, poor fit] |
| C=CCn1c(O)c(C(CC)=Nc2ccc(N(C)C)cc2)c(=O)[nH]c1=O | inconclusive: 89.1 µM [inhibitor, partial curve, poor fit] |
| COc1ccccc1-n1c(O)c(/C=N/N2CCCCC2)c(=O)n(-c2ccccc2OC)c1=S | inconclusive: 89.1 µM [inhibitor, single point] |
| CSc1ccc(C(=O)C2CCCN(Cc3cc4ccccc4[nH]3)C2)cc1 (configuration not stated) | inconclusive: 35.5 µM [inhibitor, full curve, poor fit] |
| CC(=O)Nc1ccc(C=C2C(=O)NC(=O)NC2=O)cc1 | inconclusive: 79.4 µM [inhibitor, partial curve, poor fit] |
| O=S(=O)(c1ccccc1)N1CC1c1ccccc1 (configuration not stated) | inconclusive: 100 µM [inhibitor, single point] |
| CCN1C[C@]2(COC)[C@H](O)C[C@H](OC)[C@]34C1C([C@H](OC)[C@H]23)[C@]1(OC(C)=O)C2[C@@H](OC(=O)c3ccccc3)C(O)(C[C@H]24)[C@@H](OC)[C@@H]1O | inconclusive: 0.0844 µM [inhibitor, full curve, poor fit] |
| CCOc1ccc(N2C(=O)NC(=O)/C(=C\c3cc(OC)c(OC)cc3[N+](=O)[O-])C2=O)cc1 | inconclusive: 17.8 µM [inhibitor, full curve, poor fit] |
| Cc1cccc(-n2c(O)c(/C=N/Nc3nc4c(c(=O)n(C)c(=O)n4C)n3C)c(=O)[nH]c2=S)c1 | inconclusive: 31.6 µM [inhibitor, full curve, poor fit] |
| O=C(O)c1cc[c]([Sb](=[O])([OH])[OH])cc1[N+](=O)[O-] | inconclusive: 44.7 µM [inhibitor, partial curve, poor fit] |
| CN1C(=O)C(=Cc2ccc(N3CCCCCC3)cc2)C(=O)N(C)C1=O | inactive |
| O=C1NC(=O)N(Cc2ccco2)C(=O)/C1=C/c1cccn1CCOc1ccccc1Cl | inconclusive: 56.2 µM [inhibitor, partial curve, poor fit] |
| Cc1nc2c(c(=O)[nH]1)C(c1ccc([N+](=O)[O-])cc1)c1c(c3ccccc3oc1=O)O2 (configuration not stated) | inactive |
| C#CCOc1ccc(OC)cc1C(c1c(C)[nH][nH]c1=O)c1c(C)[nH][nH]c1=O | inconclusive: 50.1 µM [inhibitor, partial curve, poor fit] |
| CCN(CC)C(=O)c1ccc2c(c1)C1C=CCC1C(C(=O)O)N2 (configuration not stated) | inconclusive: 50.1 µM [inhibitor, partial curve, poor fit] |
| CCOC(=O)[C@]12Cc3cc4c(cc3[C@H]1N(Cc1ccccc1)C(=O)c1ccccc12)OCO4 | inactive |
| Cc1cc(/C=C2\C(=O)NC(=O)N(c3ccc(Cl)cc3)C2=O)c(C)n1-c1sc2c(c1C#N)CCCC2 | inconclusive: 35.5 µM [inhibitor, partial curve, poor fit] |

| Structure (SMILES) | Potency |
| --- | --- |
| COc1ccc(N/N=C/c2c(O)n(-c3ccc(C)c(C)c3)c(=O)[nH]c2=O)cc1 | inconclusive: 35.5 µM [inhibitor, full curve, poor fit] |
| O=C(O)c1cc[c]([Hg][Cl])cc1 | active: 6.7 µM |
| CCOC(=O)c1nc2ccccc2c(=O)n1-c1cccc(C)c1 | inconclusive: 89.1 µM [inhibitor, single point] |
| COC(=O)C1=C(c2ccc(-c3ccccc3)c(F)c2)C[C@@H]2CC[C@H]1N2C(=O)N1CCC(C)CC1 | inactive |
| O=C1NC(=S)N(c2ccccc2F)C(=O)/C1=C\c1cccs1 | inconclusive: 35.5 µM [inhibitor, partial curve, poor fit] |
| CC(C(=O)c1ccc(Cl)cc1Cl)n1cncn1 (configuration not stated) | inconclusive: 79.4 µM [inhibitor, single point] |
| Cc1cc(/C=C2\C(=O)NC(=O)N(c3cccc(F)c3)C2=O)c(C)n1-c1cc(C(=O)O)cc(C(=O)O)c1 | inconclusive: 50.1 µM [inhibitor, partial curve, poor fit] |
| COc1ccccc1N1CCNCC1 | inactive |
| COC(=O)C1=C(c2ccc(F)cc2OCc2ccccc2)C[C@@H]2CC[C@H]1N2C(=O)NCCOc1ccccc1 | inactive |
| CC(=O)c1c(O)c(C)c(O)c(Cc2c(O)c3c(c(C(=O)/C=C/c4ccccc4)c2O)OC(C)(C)C=C3)c1O | inactive and active: 10.6 µM |
| CNCCC(Oc1ccc(C(F)(F)F)cc1)c1ccccc1 (configuration not stated) | inconclusive: 10.6 µM [inhibitor, partial curve, poor fit] |
| CC(C)N1CCN(c2ccc(O)cc2)CC1 | inconclusive: 70.8 µM [inhibitor, partial curve, poor fit] |
| CCCCCCCCCCCCCCCC[n+]1ccccc1 | inconclusive: 70.8 µM [inhibitor, partial curve, poor fit] and inconclusive: 56.2 µM [inhibitor, partial curve, poor fit] |
| Cc1ccc(/C=C2\C(=O)NC(=O)N(CCc3ccc(F)cc3)C2=O)o1 | inconclusive: 28.2 µM [inhibitor, full curve, poor fit] |
| CC(=O)O[C@H]1C[C@H]2CC[C@@H]3[C@H]4C[C@@H]([N+]5(C)CCCCC5)[C@@H](OC(C)=O)[C@]4(C)CC[C@@H]3[C@@]2(C)C[C@@H]1[N+]1(C)CCCCC1 | inconclusive: 0.947 µM [inhibitor, partial curve, poor fit] |
| O=C1NC(=O)C(=Cc2ccc(OCCOc3ccc([N+](=O)[O-])cc3)cc2)C(=O)N1 | inconclusive: 44.7 µM [inhibitor, partial curve, poor fit] |
| CCCN1CCO[C@@H]2c3cc(O)ccc3OC[C@H]21 | inconclusive: 0.0752 µM [inhibitor, partial curve, poor fit] |
| Clc1ccc(C(c2ccc(Cl)cc2)n2cc[n+](CC(OCc3ccc(Cl)cc3Cl)c3ccc(Cl)cc3Cl)c2)cc1 (configuration not stated) | inconclusive: 26.7 µM [inhibitor, single point] |
| CC(CO)NC(=O)C1C=C2c3cccc4[nH]cc(c34)CC2N(C)C1 (configuration not stated) | inconclusive: 0.0752 µM [inhibitor, full curve, poor fit] |

| Structure (SMILES) | Potency |
| --- | --- |
| CN(C(=O)Oc1ccc(F)cc1)c1ccccc1 | inactive |
| N#CC(C#N)=C(C#N)c1ccc(Nc2ccccc2)cc1 | inconclusive: 112 µM [inhibitor, partial curve, poor fit] |
| CCN1C(=O)NC(=O)/C(=C/c2cc(C)n(-c3sc(C)c(C)c3C#N)c2C)C1=O | inconclusive: 50.1 µM [inhibitor, partial curve, poor fit] |
| COc1cc(OC)c(OC)cc1/C=C1/C(=O)NC(=O)N(Cc2ccccc2)C1=O | inconclusive: 79.4 µM [inhibitor, partial curve, poor fit] |
| C/C(=N\NC(N)=S)C12CC3CC(CC(C3)C1)C2 | inconclusive: 89.1 µM [inhibitor, partial curve, poor fit] |
| C=CCc1c(C)[nH]c(=S)c(C#N)c1C | inconclusive: 50.1 µM [inhibitor, partial curve, poor fit] |
| Brc1c(NC2=NCCN2)ccc2nccnc12 | active: 18.9 µM |
| COC(=O)C1CN(C#N)N(c2ccc(Cl)cc2)C12c1ccccc1-c1ccccc12 (configuration not stated) | inconclusive: 70.8 µM [inhibitor, partial curve, poor fit] |
| OCC[n+]1c2ccccc2nc2ccc(N3CCOCC3)cc21 | inconclusive: 31.6 µM [inhibitor, full curve, poor fit] |
| Cc1cccc(N2C(=O)NC(=O)/C(=C\c3ccc4c(c3)CCCN4Cc3ccccc3)C2=O)c1 | inconclusive: 44.7 µM [inhibitor, partial curve, poor fit] |
| CCOP(=S)(OCC)Oc1nc(Cl)c(Cl)cc1Cl | inactive |
| N#C/C(=C\c1ccc(O)c(O)c1)C(=O)NCCCNC(=O)/C(C#N)=C/c1ccc(O)c(O)c1 | inconclusive: 23.8 µM [inhibitor, single point] |
| C=CCn1c(O)c(C=Nc2ccc(Cc3ccncc3)cc2)c(=O)[nH]c1=S | inconclusive: 20 µM [inhibitor, full curve, poor fit] |
| O=P1(N(CCCl)CCCl)NCCCO1 (configuration not stated) | inconclusive: 4.22 µM [inhibitor, single point] |
| CCCN[C@@H]1CCc2c(OC)cccc2[C@@H]1C | inconclusive: 2.38 µM [inhibitor, partial curve, poor fit] |
| Cc1cccc(N=Nc2ccc(N(C)C)cc2)c1 | inconclusive: 89.1 µM [inhibitor, single point] |
| COC(=O)c1c(N)n(Cc2ccc(OC)cc2)c2nc3ccccc3nc12 | inactive |
| C=CCNC(=O)c1c(N)n(Cc2ccco2)c2nc3ccccc3nc12 | inconclusive: 10 µM [inhibitor, full curve, poor fit] |
| CN(C)[C@@H]1C(=O)C(C(N)=O)=C(O)[C@@]2(O)C(=O)C3=C(O)c4c(O)cccc4[C@@](C)(O)[C@H]3[C@H](O)[C@@H]12 | inconclusive: 79.4 µM [inhibitor, partial curve, poor fit] |
